The campaign covered roughly 310,000 compounds. About 2,200 (0.71%) showed an effect of 50% or more. The effect is printed as a negative number. Some of the results follow.
target: human ether-à-go-go-related gene (hERG) potassium channel (human, UniProt Q12809); assay: primary screen, population patch clamp on CHO cells stably expressing hERG
Sequence (Q12809 whole entry, looked up): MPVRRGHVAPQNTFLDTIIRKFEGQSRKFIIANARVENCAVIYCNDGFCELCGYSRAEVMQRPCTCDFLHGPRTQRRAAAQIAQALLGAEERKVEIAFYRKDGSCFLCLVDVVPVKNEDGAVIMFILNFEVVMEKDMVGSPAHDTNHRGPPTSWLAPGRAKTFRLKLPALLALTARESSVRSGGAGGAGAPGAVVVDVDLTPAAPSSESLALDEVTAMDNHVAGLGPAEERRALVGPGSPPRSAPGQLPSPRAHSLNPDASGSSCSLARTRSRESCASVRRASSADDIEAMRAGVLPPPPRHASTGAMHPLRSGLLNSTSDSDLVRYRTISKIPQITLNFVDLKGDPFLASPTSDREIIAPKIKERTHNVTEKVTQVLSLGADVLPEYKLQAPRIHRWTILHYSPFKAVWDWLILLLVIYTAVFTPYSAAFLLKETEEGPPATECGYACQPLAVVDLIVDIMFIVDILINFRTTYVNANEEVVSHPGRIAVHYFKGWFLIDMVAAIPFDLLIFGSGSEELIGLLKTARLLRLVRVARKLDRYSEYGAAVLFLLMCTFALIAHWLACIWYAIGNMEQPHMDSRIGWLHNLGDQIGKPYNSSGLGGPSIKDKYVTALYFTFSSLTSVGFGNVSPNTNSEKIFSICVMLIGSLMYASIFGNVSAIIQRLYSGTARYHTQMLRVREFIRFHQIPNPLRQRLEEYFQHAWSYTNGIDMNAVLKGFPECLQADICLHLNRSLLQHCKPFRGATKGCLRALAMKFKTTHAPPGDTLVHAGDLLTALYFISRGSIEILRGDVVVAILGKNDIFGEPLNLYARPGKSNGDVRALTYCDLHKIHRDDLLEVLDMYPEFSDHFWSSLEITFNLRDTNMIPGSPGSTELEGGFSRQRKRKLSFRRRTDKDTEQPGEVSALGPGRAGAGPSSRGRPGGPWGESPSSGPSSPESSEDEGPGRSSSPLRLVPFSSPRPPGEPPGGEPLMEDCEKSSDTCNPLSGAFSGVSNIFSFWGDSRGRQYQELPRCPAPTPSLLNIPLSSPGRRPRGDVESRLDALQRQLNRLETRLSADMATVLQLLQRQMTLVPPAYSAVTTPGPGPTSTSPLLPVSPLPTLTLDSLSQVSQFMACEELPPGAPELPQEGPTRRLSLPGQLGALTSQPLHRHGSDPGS

For CC(C)(CO)Nc1nc(N2CCCC2)nc(N2CCCC2)n1, which “hERG current change (%, negative = inhibition) at 1uM” value is on record?
The value was 0.747%.

With Cc1ccc(NC(=O)CSc2nnc(-c3cccs3)o2)cc1S(=O)(=O)N1CCCCC1 as the molecule, how does the “hERG current change (%, negative = inhibition) at 1uM” value read?
Its value is 6.08%.

How did the “hERG current change (%, negative = inhibition) at 1uM” value turn out when COc1ccc(-c2[nH]ncc2N=Nc2cc(C)cc(C)c2)cc1 was run?
Its value is 23.5%.

For Cc1sc(-n2c(C)cc(/C=C3\SC(=S)NC3=O)c2C)c(C#N)c1C, which “hERG current change (%, negative = inhibition) at 1uM” value is on record?
Its value is 8.84%.

With COc1cc(CN(C(=O)c2ccco2)c2ccc(C)cc2)ccc1O as the molecule, how does the “hERG current change (%, negative = inhibition) at 1uM” value read?
Its value is -1.51%.

With COc1ccc(C=O)cc1OC1C=CCCC1 (stereo not drawn) as the molecule, how does the “hERG current change (%, negative = inhibition) at 1uM” value read?
The value was 12.9%.

Which “hERG current change (%, negative = inhibition) at 1uM” value does the source give for CC(=Nc1ccccc1)C1=C(O)COC1=O here?
Its value is 7.28%.

Which “hERG current change (%, negative = inhibition) at 1uM” value does the source give for Cc1cccc(N2CCN(C(=O)C3CCN(S(=O)(=O)c4cnc[nH]4)CC3)CC2)c1C here?
The value was 14.2%.

How did the “hERG current change (%, negative = inhibition) at 1uM” value turn out when COCCNC(=O)Cn1c(=O)n(Cc2ccc(C(=O)NCCc3ccc(OC)c(OC)c3)cc2)c(=O)c2ccccc21 was run?
Its value is 15.5%.

With CC(=O)Nc1nnc(-c2ccc3c(c2)CCCC3)o1 as the molecule, how does the “hERG current change (%, negative = inhibition) at 1uM” value read?
The value was -17.1%.

For COc1cc(/C=N/NC(=O)c2cc(C)oc2C)cc(OC)c1OC, which “hERG current change (%, negative = inhibition) at 1uM” value is on record?
Its value is 18.4%.

CCC(=O)Nc1ccc(Br)cn1 was tested. Which “hERG current change (%, negative = inhibition) at 1uM” value did it give?
Its value is 15.6%.

Which “hERG current change (%, negative = inhibition) at 1uM” value does the source give for CC1CCN(CC(=O)Nc2ccccc2C(=O)NC2CC2)CC1 here?
The value was 5.31%.

For Cc1nc(-c2ccccc2)sc1C1(C)CC(c2ccc(OC(F)(F)F)cc2)=NO1 (stereo not drawn), which “hERG current change (%, negative = inhibition) at 1uM” value is on record?
The value was 8.66%.

Which “hERG current change (%, negative = inhibition) at 1uM” value does the source give for O=C(O)CCn1ncc2ccccc2c1=O here?
The value was 10.7%.

For O=C(Nc1cccc(-c2cccc(Cl)c2)c1)C1CCN(C2CCC2)CC1, which “hERG current change (%, negative = inhibition) at 1uM” value is on record?
Its value is -35.1%.

How did the “hERG current change (%, negative = inhibition) at 1uM” value turn out when COCCNC(=O)c1cc2nc(-c3ccc(F)cc3)cc(C(F)(F)F)n2n1 was run?
The value was 7.29%.

How did the “hERG current change (%, negative = inhibition) at 1uM” value turn out when COc1ccc(CCN2CC(C(=O)OCC(=O)Nc3c(C)nn(-c4ccccc4)c3C)CC2=O)cc1OC (stereo not drawn) was run?
Its value is 3.6%.

With COc1ccc(C(C)N2CC34C=CC(O3)C(C(=O)O)C4C2=O)cc1 (stereo not drawn) as the molecule, how does the “hERG current change (%, negative = inhibition) at 1uM” value read?
Its value is 15.5%.

With Cn1c(=O)c2c(ncn2CC(O)CNc2cccc(Cl)c2)n(C)c1=O (stereo not drawn) as the molecule, how does the “hERG current change (%, negative = inhibition) at 1uM” value read?
Its value is 3.88%.

C[C@H](NC(=O)C1CCN(S(=O)(=O)c2ccccc2)CC1)C(=O)NCc1ccccc1 was tested. Which “hERG current change (%, negative = inhibition) at 1uM” value did it give?
The value was 2.61%.

How did the “hERG current change (%, negative = inhibition) at 1uM” value turn out when CCCCCCCN1CCC(=O)N([C@H](CO)CC(C)C)CC1 was run?
The value was -29.5%.

CC(NC(=O)Cn1c(=O)oc2cc(S(=O)(=O)N3CCCC3)ccc21)c1ccccc1 (stereo not drawn) was tested. Which “hERG current change (%, negative = inhibition) at 1uM” value did it give?
The value was 8.03%.

CN(C(=O)c1cc(C(=O)N(C)c2ccccc2)cc([N+](=O)[O-])c1)c1ccccc1 was tested. Which “hERG current change (%, negative = inhibition) at 1uM” value did it give?
Its value is 5.51%.

Source: article PMC4336329 (PLoS ONE, 2015)
